Laboratory results from the antibiotic and cytotoxicity screens of Wong et al. (2023).
The list shows a part of the results.

Legend:
HSkMC = human skeletal muscle cells; test: cytotoxicity call (relative viability < 0.9); settings: 10 µM
HepG2 = test: cytotoxicity call (relative viability < 0.9); settings: 10 µM
S. aureus RN4220 = test: growth inhibition call (relative growth <= 0.2); settings: 50 µM

Cc1noc(C)c1S(=O)(=O)Nc1ccc2c(c1)C(=O)N([C@@H](C)CO)C[C@H](C)[C@H](CN(C)C(=O)NC1CCCCC1)O2
inactive: cytotoxicity call (HSkMC) | cytotoxicity call (HepG2) | growth inhibition call (S. aureus RN4220)

COc1ccc([Si](C)(C)[C@@H]2[C@@H](CC(=O)N3Cc4ccccc4C[C@H]3CO)O[C@]3(C(=O)N(Cc4ccc(N5CCC5=O)cc4)c4ccccc43)[C@H]2C)cc1
inactive: cytotoxicity call (HSkMC) | cytotoxicity call (HepG2) | growth inhibition call (S. aureus RN4220)

C[C@@H]1CCCCO[C@H](CN(C)S(=O)(=O)c2cn(C)cn2)[C@@H](C)CN([C@H](C)CO)C(=O)c2cc(NS(=O)(=O)c3ccc(F)cc3)ccc2O1
inactive: cytotoxicity call (HSkMC) | cytotoxicity call (HepG2) | growth inhibition call (S. aureus RN4220)

Cn1c(=O)c2c(nc(SCC(=O)NC(C)(C)C)n2C)n(C)c1=O
inactive: cytotoxicity call (HSkMC) | cytotoxicity call (HepG2) | growth inhibition call (S. aureus RN4220)

Cc1ccc(S(=O)(=O)N(C)C[C@H]2Oc3ccc(NS(C)(=O)=O)cc3C(=O)N([C@@H](C)CO)C[C@H]2C)cc1
inactive: cytotoxicity call (HSkMC) | cytotoxicity call (HepG2) | growth inhibition call (S. aureus RN4220)

C[C@@H]1CN([C@@H](C)CO)C(=O)c2cc(/C=C/c3ccccc3)cnc2O[C@H]1CN(C)S(=O)(=O)c1cn(C)cn1
inactive: cytotoxicity call (HSkMC) | cytotoxicity call (HepG2) | growth inhibition call (S. aureus RN4220)

C[C@H](CO)N1C[C@H](C)[C@@H](CN(C)S(C)(=O)=O)Oc2ccc(NC(=O)Cc3cn(C)c4ccccc34)cc2CC1=O
inactive: cytotoxicity call (HSkMC) | cytotoxicity call (HepG2) | growth inhibition call (S. aureus RN4220)

CC1(C)CCCC2(C)C1CCC1(C)OC(=O)CC12 (stereo not given)
inactive: cytotoxicity call (HSkMC) | cytotoxicity call (HepG2) | growth inhibition call (S. aureus RN4220)

C[C@H]1CCCCO[C@@H](CN(C)C)[C@@H](C)CN([C@@H](C)CO)C(=O)c2cc(NC(=O)CCCN(C)C)ccc2O1
inactive: cytotoxicity call (HSkMC) | cytotoxicity call (HepG2) | growth inhibition call (S. aureus RN4220)

COc1ccc(NC(=O)N(C)C[C@@H]2OCCCC[C@H](C)Oc3ccc(NC(=O)Nc4ccc5c(c4)OCO5)cc3C(=O)N([C@H](C)CO)C[C@@H]2C)cc1
inactive: cytotoxicity call (HSkMC) | cytotoxicity call (HepG2) | growth inhibition call (S. aureus RN4220)
